Source: the antibiotic and cytotoxicity screens of Wong et al. (2023)
This is one part of the list.

These compounds were tested on S. aureus RN4220 (assay: growth inhibition call (relative growth <= 0.2)). Settings: 50 µM.

Growth inhibition call, inactive:
CC(C)NC(=O)N(C)C[C@@H]1OCCCC[C@@H](C)Oc2ccc(NC(=O)Nc3ccc(F)cc3)cc2C(=O)N([C@H](C)CO)C[C@@H]1C
C[C@H]1CCCCO[C@H](CN(C)Cc2ccc(C(F)(F)F)cc2)[C@@H](C)CN([C@@H](C)CO)C(=O)c2cc(NS(=O)(=O)c3ccc(Cl)cc3)ccc2O1
C[C@@H]1CCCCO[C@H](CN(C)C(=O)Nc2ccc3c(c2)OCO3)[C@H](C)CN([C@@H](C)CO)C(=O)c2cc(NS(=O)(=O)c3ccc(Cl)cc3)ccc2O1
C[C@H](CO)N1C[C@H](C)[C@@H](CN(C)S(C)(=O)=O)Oc2ccc(NS(=O)(=O)c3cccs3)cc2C1=O
O=C(N[C@@H]1C=C[C@@H](CC(=O)N2CCOCC2)O[C@@H]1CO)c1ccc2c(c1)OCO2
COC(=O)C[C@@H]1CC[C@H]2[C@@H](COC[C@H](O)CN2S(=O)(=O)c2ccc(F)cc2)O1
CC(C)NC(=O)N(C)C[C@@H]1Oc2c(NS(=O)(=O)c3cccs3)cccc2C(=O)N([C@@H](C)CO)C[C@H]1C
C[C@@H]1CCCCO[C@H](CN(C)C(=O)Nc2cccc3ccccc23)[C@@H](C)CN([C@H](C)CO)C(=O)c2cc(NS(=O)(=O)c3ccccc3)ccc2O1
CCS(=O)(=O)N1C[C@]2(C1)CN([C@@H](CO)c1c2c2ccc(cc2n1C)OC)S(=O)(=O)c1ccccc1
COCCCNC(=O)[C@@]1(Sc2ccc(C)cc2)CC(=O)N(C2CCCCC2)[C@@H]1c1ccc(CO)cc1I
C[C@@H]1CN([C@H](C)CO)C(=O)c2cc(NC(=O)C3CCCCC3)ccc2O[C@H]1CN(C)S(=O)(=O)c1cn(C)cn1
C[C@@H]1CN([C@@H](C)CO)C(=O)Cc2cc(NC(=O)c3ccncc3)ccc2O[C@H]1CN(C)Cc1ccc(Oc2ccccc2)cc1
O=C(C[C@H]1CC[C@@H](NC(=O)c2cccnc2)[C@@H](CO)O1)NCCN1CCCCC1
C[C@H]1CCCCO[C@@H](CN(C)C(=O)Nc2ccc(C(F)(F)F)cc2)[C@@H](C)CN([C@@H](C)CO)C(=O)c2cc(N(C)C)ccc2O1
C[C@@H]1CN([C@@H](C)CO)C(=O)c2cc(NC(=O)Nc3cccc4ccccc34)ccc2O[C@H]1CN(C)Cc1ccc(Cl)c(Cl)c1
C[C@@H]1CN([C@H](C)CO)C(=O)c2cccc(NS(=O)(=O)c3cn(C)cn3)c2O[C@H]1CN(C)S(=O)(=O)c1cccs1
C[C@H](CO)N1C[C@H](C)[C@@H](CN(C)C(=O)Nc2ccc(C(F)(F)F)cc2)OCCCC[C@H](C)Oc2ccc(NS(=O)(=O)c3ccccc3)cc2C1=O
C[C@@H]1CCCCO[C@@H](CN(C)Cc2ccncc2)[C@@H](C)CN([C@H](C)CO)C(=O)c2cc(NC(=O)CCC(F)(F)F)ccc2O1
C[C@@H]1CN([C@H](C)CO)C(=O)c2cccc(NC(=O)Nc3ccc(F)cc3)c2O[C@H]1CN(C)C(=O)Nc1ccc(C(F)(F)F)cc1
CCS(=O)(=O)Nc1ccc2c(c1)C(=O)N(C)C[C@H](OC)[C@@H](C)CN(Cc1nccs1)[C@H](C)CO2
C[C@H]1CN([C@@H](C)CO)S(=O)(=O)c2ccc(C#Cc3ccc(F)cc3)cc2O[C@H]1CN(C)CC1CC1
C[C@H](CO)N1C[C@H](C)[C@H](CN(C)S(=O)(=O)c2ccccc2)OCCCC[C@H](C)Oc2ccc(NS(=O)(=O)c3cn(C)cn3)cc2C1=O
CC(C)(C)c1ccc(NC(=O)c2ccc(C(C)(C)C)s2)cc1
Cc1noc(C)c1NC(=O)Nc1ccc2c(c1)C(=O)N([C@@H](C)CO)C[C@H](C)[C@@H](CN(C)Cc1ccccc1)OCCCC[C@H](C)O2
C[C@H](CO)N1C[C@H](C)[C@@H](CN(C)Cc2ccncc2)Oc2c(NS(=O)(=O)c3cn(C)cn3)cccc2C1=O
C[C@H](CO)N1C[C@H](C)[C@@H](CN(C)Cc2ccc(Cl)c(Cl)c2)Oc2c(NS(=O)(=O)c3ccccc3)cccc2C1=O
C[C@@H]1CCCCO[C@H](CN(C)C(=O)c2ccccc2)[C@@H](C)CN([C@H](C)CO)C(=O)c2cc(NC(=O)CCC(F)(F)F)ccc2O1
C[C@@H]1CN([C@H](C)CO)C(=O)c2cc(NC(=O)Nc3ccc(C(F)(F)F)cc3)ccc2O[C@@H](C)CCCCO[C@@H]1CN(C)S(=O)(=O)c1cn(C)cn1
